For 9 molecules, binding results are on record in publication PMC2730531.

The chains behind the UniProt entries cited, without tags or fusion partners. Where a name states a change or a piece, a line headed by the entry shows the natural chain unless it says otherwise.
UniProt P25302: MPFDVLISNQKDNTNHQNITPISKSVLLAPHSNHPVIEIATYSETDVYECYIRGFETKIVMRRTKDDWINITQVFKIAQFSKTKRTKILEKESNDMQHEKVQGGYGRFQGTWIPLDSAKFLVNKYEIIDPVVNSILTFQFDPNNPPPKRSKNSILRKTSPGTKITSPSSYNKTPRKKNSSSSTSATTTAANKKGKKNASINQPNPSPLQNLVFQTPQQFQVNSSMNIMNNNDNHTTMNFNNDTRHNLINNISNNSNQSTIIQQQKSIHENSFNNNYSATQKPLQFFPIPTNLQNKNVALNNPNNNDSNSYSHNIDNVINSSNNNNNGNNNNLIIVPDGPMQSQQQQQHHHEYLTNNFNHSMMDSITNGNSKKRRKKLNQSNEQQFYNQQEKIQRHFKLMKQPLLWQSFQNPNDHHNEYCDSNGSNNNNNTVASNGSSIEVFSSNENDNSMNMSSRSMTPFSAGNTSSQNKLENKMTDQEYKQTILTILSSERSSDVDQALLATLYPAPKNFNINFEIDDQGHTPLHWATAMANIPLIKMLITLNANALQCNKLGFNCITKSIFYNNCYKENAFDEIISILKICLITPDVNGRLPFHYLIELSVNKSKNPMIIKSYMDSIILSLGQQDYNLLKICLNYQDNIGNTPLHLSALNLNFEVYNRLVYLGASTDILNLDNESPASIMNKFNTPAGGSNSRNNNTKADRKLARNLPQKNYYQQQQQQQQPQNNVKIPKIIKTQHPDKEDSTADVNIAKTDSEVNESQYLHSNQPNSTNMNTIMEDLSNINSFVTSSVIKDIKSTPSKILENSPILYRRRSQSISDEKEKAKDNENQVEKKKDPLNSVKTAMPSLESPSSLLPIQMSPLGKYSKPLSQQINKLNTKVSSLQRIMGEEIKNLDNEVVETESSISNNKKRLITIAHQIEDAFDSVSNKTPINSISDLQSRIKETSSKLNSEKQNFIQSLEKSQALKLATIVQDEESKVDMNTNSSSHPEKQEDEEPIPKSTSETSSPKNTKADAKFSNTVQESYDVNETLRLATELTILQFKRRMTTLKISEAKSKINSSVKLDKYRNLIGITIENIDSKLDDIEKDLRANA
UniProt P09959: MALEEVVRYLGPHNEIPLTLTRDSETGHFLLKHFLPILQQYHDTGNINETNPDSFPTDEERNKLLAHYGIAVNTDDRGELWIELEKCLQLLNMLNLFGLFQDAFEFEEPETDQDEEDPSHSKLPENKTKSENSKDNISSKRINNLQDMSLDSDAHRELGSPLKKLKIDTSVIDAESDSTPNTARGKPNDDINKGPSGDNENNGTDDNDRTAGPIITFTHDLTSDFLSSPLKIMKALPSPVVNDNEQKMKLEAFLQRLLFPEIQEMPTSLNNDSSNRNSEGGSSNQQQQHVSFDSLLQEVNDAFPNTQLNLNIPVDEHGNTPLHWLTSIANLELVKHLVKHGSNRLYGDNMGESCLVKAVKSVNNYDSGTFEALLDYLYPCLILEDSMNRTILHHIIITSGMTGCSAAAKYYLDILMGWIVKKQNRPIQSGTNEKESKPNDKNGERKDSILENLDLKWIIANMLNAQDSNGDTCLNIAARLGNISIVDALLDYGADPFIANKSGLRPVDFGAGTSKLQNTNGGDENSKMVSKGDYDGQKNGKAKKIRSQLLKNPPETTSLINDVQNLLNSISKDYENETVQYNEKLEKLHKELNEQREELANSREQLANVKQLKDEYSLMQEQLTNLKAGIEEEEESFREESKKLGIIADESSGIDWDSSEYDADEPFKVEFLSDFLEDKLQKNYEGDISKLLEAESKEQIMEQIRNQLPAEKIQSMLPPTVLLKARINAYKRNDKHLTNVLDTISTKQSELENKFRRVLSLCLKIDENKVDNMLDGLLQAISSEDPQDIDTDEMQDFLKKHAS

These are yes or no findings as the source states them, for the method shown. Binding seen in cells or lysates may run through a third protein. Some results given as binding are weak or reduced against the parent protein; the word gives no strength. Where a sequence is shown, tags or fusion partners need not be part of it.

The chains are these.
B1: Pcl1^HA (protein, UniProt P24867 1-279)
chain: MCEYSKALHILLKSPVTDDIIKFLTDTTLRVVPSSNYPTPPGSPGEKHLTRLPSLMTFITRLVRYTNVYTPTLLTAACYLNKLKRILPRDATGLPSTIHRIFLACLILSAKFHNDSSPLNKHWARYTDGLFTLEDINLMERQLLQLLNWDLRVNTEDLILDLQPLLEPIKQDLARSSDQRKRINMMMSMNRRTCAGTSPIRSNNRFKLYEKQRNVSIASDLSSATLVDSCNDLRRLKDVTNIANNTVANTNYVRTVEKWNDNVNRQSWDLEQIMSQHGF
B2: Pcl9^HA (protein, UniProt Q12477 1-304)
chain: MISDYDALLQFNKKPVSQEMIQFLATSTASIIKIRENNNPIQGCRPPDLSIFIKNVVIQSNVQTPTLMATSVYLNKLKSVIPKNVYGINTTRHRIFLGCLILAAKTLNDSSPWNKHWTTYTEGLLRIREVNTIERELLEYLNWDVRITTPDLIDSLSYFLGPIKEQLFLQRRQEMLLFNAPSPGQLKEYINHRRPVSHSRTSSAISVPSLTSMATVSTTDSRSSLLAKYQPSLPLVESDNFNKKNHVPLRNNNDICNNFRAEENIHSVNHIDVTMGSSPVMSHKPTIHQRLNFTRRGWSSFFKQ
B3: GST-Whi5 (recombinant, E. coli) (protein, UniProt Q12416 1-295)
chain: MSLRTPKRSRTSDEQEQEQEQEQVQNPDTHVNNEHQQRPGPTTLLSTPVRLKNGFGTPSPPSPPGITKSITKSRRRPSTTSLQGIFMSPVNKRRVGITAHGRVYDHNDDGHESESEDDENEEENENQKKYDGHVSMPLLPPTTPKSRRSEVFLSPSPRLRSPPTAARRSTGERPIREISHTLRTRLNYALVKLQNGWTDKTLPELETELAPAVQTPPRRYHNRFPDSADAGTSAHTAFLQALGGHPPREEATAVETLMLLSSPTKKQQHRPVPATSAGEPTDETEPESDTEVETS
B4: GST-Whi5 phosphorylated by Pcl9-Pho85 (protein, UniProt Q12416 1-295)
chain: MSLRTPKRSRTSDEQEQEQEQEQVQNPDTHVNNEHQQRPGPTTLLSTPVRLKNGFGTPSPPSPPGITKSITKSRRRPSTTSLQGIFMSPVNKRRVGITAHGRVYDHNDDGHESESEDDENEEENENQKKYDGHVSMPLLPPTTPKSRRSEVFLSPSPRLRSPPTAARRSTGERPIREISHTLRTRLNYALVKLQNGWTDKTLPELETELAPAVQTPPRRYHNRFPDSADAGTSAHTAFLQALGGHPPREEATAVETLMLLSSPTKKQQHRPVPATSAGEPTDETEPESDTEVETS
modifications: phosphorylated in vitro by Pcl9-Pho85; sites not given
B5: GST-Whi5 phosphorylated by Cln3-Cdc28 (protein, UniProt Q12416 1-295)
chain: MSLRTPKRSRTSDEQEQEQEQEQVQNPDTHVNNEHQQRPGPTTLLSTPVRLKNGFGTPSPPSPPGITKSITKSRRRPSTTSLQGIFMSPVNKRRVGITAHGRVYDHNDDGHESESEDDENEEENENQKKYDGHVSMPLLPPTTPKSRRSEVFLSPSPRLRSPPTAARRSTGERPIREISHTLRTRLNYALVKLQNGWTDKTLPELETELAPAVQTPPRRYHNRFPDSADAGTSAHTAFLQALGGHPPREEATAVETLMLLSSPTKKQQHRPVPATSAGEPTDETEPESDTEVETS
modifications: phosphorylated in vitro by Cln3-Cdc28; sites not given
B6: GST-Whi5 phosphorylated by both Cln3-Cdc28 and Pcl9-Pho85 (protein, UniProt Q12416 1-295)
chain: MSLRTPKRSRTSDEQEQEQEQEQVQNPDTHVNNEHQQRPGPTTLLSTPVRLKNGFGTPSPPSPPGITKSITKSRRRPSTTSLQGIFMSPVNKRRVGITAHGRVYDHNDDGHESESEDDENEEENENQKKYDGHVSMPLLPPTTPKSRRSEVFLSPSPRLRSPPTAARRSTGERPIREISHTLRTRLNYALVKLQNGWTDKTLPELETELAPAVQTPPRRYHNRFPDSADAGTSAHTAFLQALGGHPPREEATAVETLMLLSSPTKKQQHRPVPATSAGEPTDETEPESDTEVETS
modifications: phosphorylated in vitro by both Cln3-Cdc28 and Pcl9-Pho85; sites not given
B7: Hos3^TAP (enzyme, UniProt Q02959 1-697)
chain: MSSKHSDPLERFYKQFQAFVQNNPNVISAARAAAQIPESAKAVVVLSPYSLQHVFPREWVTKSYRKTIVERPERLLASSMGISAAITMYPSLFTLKSSHQRKGSLMAPHVLKVHGSSWPAELIELCQMADAKLLKGEIEVPDTWNSGDIYLSSKTIKALQGTIGAIETGVDSIFKGPSAEHISNRAFVAIRPPGHHCHYGTPSGFCLLNNAHVAIEYAYDTYNVTHVVVLDFDLHHGDGTQDICWKRAGFKPEEEPEDSSYDDFGKKFAEFPKVGYFSMHDINSFPTESGFATKENIKNASTCIMNSHDLNIWNIHLSKWTTEEEFNVLYRTKYRTLFAKADEFFRSAKLEMNQQGRPFKGLVVISAGFDASEFEQTSMQRHSVNVPTSFYTTFTKDALKLAQMHCHGKVLSLMEGGYSDKAICSGVFAHLIGLQNQDWVKEWGSEQVVKEIVRGCKPAWKPYKTKRAKDVIRIWAEEVIRLGRAMIPEFDDIIFKDAVNSAPSNSLLKATVEPASTSTIAQRIIRSHRSNASPEKELHENKPRSTEKQEQREIRSDTKVKQLSSNNRAAETQIPFLQQEFSSEDEDEEYVYDEELNKTFNRTVEDITIDDISRHLETLEIEKKGDEDSDHELKEKNWKNSHQRRLQGNGMYKIPSNTKPHRIRQPQNANTPTYDDSDISMISHVSRKHTTRSGGRW
B8: Rpd3^TAP (enzyme, UniProt P32561 1-433)
chain: MVYEATPFDPITVKPSDKRRVAYFYDADVGNYAYGAGHPMKPHRIRMAHSLIMNYGLYKKMEIYRAKPATKQEMCQFHTDEYIDFLSRVTPDNLEMFKRESVKFNVGDDCPVFDGLYEYCSISGGGSMEGAARLNRGKCDVAVNYAGGLHHAKKSEASGFCYLNDIVLGIIELLRYHPRVLYIDIDVHHGDGVEEAFYTTDRVMTCSFHKYGEFFPGTGELRDIGVGAGKNYAVNVPLRDGIDDATYRSVFEPVIKKIMEWYQPSAVVLQCGGDSLSGDRLGCFNLSMEGHANCVNYVKSFGIPMMVVGGGGYTMRNVARTWCFETGLLNNVVLDKDLPYNEYYEYYGPDYKLSVRPSNMFNVNTPEYLDKVMTNIFANLENTKYAPSVQLNHTPRDAEDLGDVEEDSAEAKDTKGGSQYARDLHVEHDNEFY
B9: Hos1^TAP (enzyme, UniProt Q12214 1-470)
chain: MSKLVISTSIFQSQVADLLPCNNHQKSQLTYSLINAYDLLQHFDEVLTFPYARKDDLLEFHSKSYIDYLINGRFNKMMAQDVNNPMVESKWSELSELADNWNEKIDYNPSQDLQRFTTRENLYNYYLNHSQALENNMDCINNSEVPTNDKPTDTYILNSETKQYNLEGDCPIFSYLPMYCQVITGATLNLLDHLSPTERLIGINWDGGRHHAFKQRASGFCYINDVVLLIQRLRKAKLNKITYVDFDLHHGDGVEKAFQYSKQIQTISVHLYEPGFFPGTGSLSDSRKDKNVVNIPLKHGCDDNYLELIASKIVNPLIERHEPEALIIECGGDGLLGDRFNEWQLTIRGLSRIIINIMKSYPRAHIFLLGGGGYNDLLMSRFYTYLTWCVTKQFSNLRCGDNNSFQIDPFDVCDGDDSEQFIREHDLVEMYNEENYQYWIYEMEGSSRMKMLRNDNKDRDMVELMKFYEL

One assay deals with T1, Whi5^MYC (S. cerevisiae) (UniProt Q12416).
T1 sequence: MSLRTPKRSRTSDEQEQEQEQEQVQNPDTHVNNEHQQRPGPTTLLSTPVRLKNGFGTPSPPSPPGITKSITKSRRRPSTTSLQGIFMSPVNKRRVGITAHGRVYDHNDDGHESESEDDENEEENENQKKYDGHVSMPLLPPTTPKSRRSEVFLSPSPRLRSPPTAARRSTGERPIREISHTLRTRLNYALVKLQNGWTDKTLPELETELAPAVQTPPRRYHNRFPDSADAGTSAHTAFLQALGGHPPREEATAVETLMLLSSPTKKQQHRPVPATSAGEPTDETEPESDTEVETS
Put plainly: co-IP; anti-MYC immune precipitates of WHI5^MYC strain lysates bearing HA-tagged cyclin plasmids; probed with 9E10 anti-MYC and 12CA5 anti-HA.
As to B1, the binding entry is given as “no binding”.
Take B2: the binding entry is listed as “binds”.

Substrate in another assay: SBF (Swi6-Swi4^FLAG) (S. cerevisiae) (UniProt P25302+P09959)
Put plainly: pull-down; insect cell lysate expressing SBF (Swi6-Swi4^FLAG) mixed with purified GST-Whi5 (~0.1 µg) and M2 anti-FLAG resin in kinase buffer (50 mM Tris-HCl pH 7.5, 1 mM DTT, 10 mM MgCl2), 4°C 1 h, washed; then incubated with CDKs and 0.2 mM ATP at 30°C 1 h; soluble and bound fractions by autoradiography; only the binder purified.
Take B3: the binding result is “binds”.
Regarding B4, the binding entry is on record as “binds”.
As to B5, the binding entry was “binds”.
Turning to B6, the binding entry was “binds”.

A further assay concerns the target T2, Whi5^GST (expressed in yeast) (S. cerevisiae) (UniProt Q12416).
T2 sequence: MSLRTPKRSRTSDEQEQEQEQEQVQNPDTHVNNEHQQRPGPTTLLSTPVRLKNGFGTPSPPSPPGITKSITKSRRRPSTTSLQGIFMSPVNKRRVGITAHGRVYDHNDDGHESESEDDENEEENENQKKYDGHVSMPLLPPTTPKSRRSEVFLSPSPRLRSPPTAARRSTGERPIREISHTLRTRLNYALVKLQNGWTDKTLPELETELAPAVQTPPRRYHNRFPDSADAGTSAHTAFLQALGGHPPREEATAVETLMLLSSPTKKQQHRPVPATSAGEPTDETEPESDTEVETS
Put plainly: pull-down; batch affinity chromatography: lysates of TAP-tagged HDAC strains expressing WHI5^GST incubated with glutathione sepharose beads; immunoblot with α-GST and α-PAP; also with overexpressed PCL9^FLAG, CLN2^FLAG or CLN3^FLAG (obvious decrease in Rpd3 and Hos3 in Whi5 precipitates). A general note: In western blotting, separated proteins are transferred to a membrane and probed.
As for B7, the binding entry is on record as “binds”.
For the molecule B8, the binding entry is listed as “binds”.
Same read-out and setting: under B9 stands “binds”.
